In PubChem BioAssay AID1159614 (National Center for Advancing Translational Sciences (NCATS), 2016):
Out of some 45,000 compounds screened, about 65 (0.1%) were called active. Calls follow the shape of the dose curve; as a rule, active = well fitted activation curve with a large enough effect; inconclusive = small, poorly fitted or top-dose-only effect; inactive = no such curve, though single readings can be large or run the other way. Some of the results follow.

Target: Galactocerebrosidase (Homo sapiens) (UniProt P54803)
UniProt P54803, sequence (P54803 whole entry, looked up): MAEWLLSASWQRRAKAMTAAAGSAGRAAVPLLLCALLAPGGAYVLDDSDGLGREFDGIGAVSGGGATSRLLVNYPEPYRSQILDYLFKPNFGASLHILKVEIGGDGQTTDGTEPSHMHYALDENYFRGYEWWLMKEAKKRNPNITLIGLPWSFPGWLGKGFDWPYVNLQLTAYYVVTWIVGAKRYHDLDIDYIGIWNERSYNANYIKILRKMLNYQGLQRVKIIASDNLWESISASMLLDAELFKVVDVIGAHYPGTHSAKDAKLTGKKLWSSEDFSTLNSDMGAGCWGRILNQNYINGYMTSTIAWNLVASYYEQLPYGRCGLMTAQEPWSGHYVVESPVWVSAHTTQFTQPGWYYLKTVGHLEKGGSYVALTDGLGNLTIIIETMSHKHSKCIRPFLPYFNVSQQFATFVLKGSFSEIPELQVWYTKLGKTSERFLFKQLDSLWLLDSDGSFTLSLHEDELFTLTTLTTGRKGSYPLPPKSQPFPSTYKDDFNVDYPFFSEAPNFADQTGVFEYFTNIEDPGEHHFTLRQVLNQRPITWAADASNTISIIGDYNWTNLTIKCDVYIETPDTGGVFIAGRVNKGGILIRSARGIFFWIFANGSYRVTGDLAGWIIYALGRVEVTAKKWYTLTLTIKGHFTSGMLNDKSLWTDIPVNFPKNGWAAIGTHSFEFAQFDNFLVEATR
Test: A Novel Cell-Based Assay to Identify Small Molecules for B -Galactocerebrosidase; also: 0% is about no effect; nearly all actives have a fitted effect of over 65% in size
Settings: 145M-Twi-hGALC-G270D cells (Twitcher mouse brain line with human GALC G270D), HMU-beta-Gal fluorescence, 48 h; series mostly up to 57.5 µM; activation: at the top concentration
Procedure, shortened: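 Fluorogenic HMU-b-Gal hydrolysis (0.1 mM final, pH 5.2 citrate-phosphate with 1 mg/mL sodium taurocholate; carbonate stop buffer) measures mutant GALC activity after compound treatment of live 145M-Twi Twitcher brain cells stably carrying human GALC-G270D, with wild-type GALC line alongside; activation sought.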

activation, inactive:
CCc1ccccc1NC(=O)CSc1nc2ncccc2o1 1.82%
O=C(CCc1ccccc1)N1CCc2c([nH]c3ccccc23)C1c1ccc(Cl)cc1 (configuration not stated) -36.5%
O=c1c2c3c(sc2n(Cc2ccccc2F)c(=O)n1-c1ccc(Cl)cc1)CCCC3 -13.6%
COC(=O)c1ccc(Cl)cc1NC(=O)NC(C)c1c(-n2cccc2)sc(C)c1C (configuration not stated) -9.37%
COc1ccc(NC(=O)CCc2nc3cccnc3n2-c2ccccc2)cc1Cl -11.2%
COc1cc(NC(=O)CN2C(=O)C(c3ccc(Cl)cc3)=NC23CCCCC3)cc(OC)c1 8.65%
Cc1ccc(C2=CC(c3ccc(Cl)cc3)n3nc(-c4ccc(C)cc4)nc3N2)cc1 (configuration not stated) -24.5%
CC(C)c1ccc(C2c3c(oc4ccc(Cl)cc4c3=O)C(=O)N2CCCN2CCOCC2)cc1 (configuration not stated) -6.18%
Cc1cccc(C(=O)N2CCC(N3CCN(Cc4ccc(F)cc4)C(=O)C3=O)CC2)c1 -15.9%
Cc1cc2c(cc3c(SCc4cccc(F)c4)nnc(C)n32)o1 -42.2%
Cc1ccc(O)c(NC(=O)c2cc(-c3ccc(F)cc3)on2)c1 -12.9%
COc1ccc(CCNC(=O)c2ccc3c(c2)N(Cc2ccccc2Cl)C(=O)c2ccccc2S3)cc1OC -11.2%
CCOC(=O)c1cc2c(=O)n3ccccc3nc2n(CC2CCCO2)c1=NC(=O)c1cccc(C)c1 (configuration not stated) -11.2%
O=C(COc1ccccc1F)Nc1nnc(SCc2cc(=O)n3ccccc3n2)s1 -2.61%
CCOC(=O)c1c(NC(=O)Nc2ccc(F)cc2)sc(C(=O)N(C)C)c1C -9.88%
Cc1ccccc1Cn1nnc2sc3c(c2c1=O)CCCC3 -25.2%
O=C(CS(=O)(=O)c1cccc2nsnc12)NCc1ccccc1Cl -13%
Cc1ccc(CN2c3ccccc3-c3nc(SCC(=O)NCc4ccccc4)ncc3S2(=O)=O)cc1 -14.3%
COc1ccc(C(=O)NCCc2csc(-c3ccc(Cl)cc3)n2)cc1 -13.9%
Cn1cc(CCCC(=O)NCc2cccc(Br)c2)c2ccccc21 -14.7%
O=c1c(NCc2cccs2)nccn1-c1ccccc1 -8.06%
COc1ccc(-n2cc(-c3ccccc3)c3c(N4CCCC(C)C4)ncnc32)cc1 (configuration not stated) 1.24%
CCc1nc2ccc(C(=O)NCc3ccccc3C)cc2nc1CC -2.48%
COc1ccc(-c2cccc(NS(=O)(=O)c3cc(C(F)(F)F)ccc3Cl)c2)nn1 -12.8%
CCC(=O)C1=C(c2ccccc2)N(C(=O)CC)n2c(nnc2-c2ccccc2)S1 -12.4%
Cc1ccc(N(CC(=O)Nc2ccc(F)cc2F)S(=O)(=O)c2cccs2)cc1 -34%
Cc1ccc(S(=O)(=O)NCCc2nnc3ccc(SCc4ccccc4F)nn23)cc1 -4.1%
Cc1cc(C)c(NC(=O)c2c(C)oc3c2C2=NCCN2C=N3)c(C)c1 -13.2%
Cc1cc(C)c(NC(=O)CN2C(=O)C3(SCC(=O)N3c3ccc(F)cc3)c3ccccc32)c(C)c1 (configuration not stated) -19.1%
Cc1cccc(N2CCN(C(=O)C(C)n3nc(C)n4c(cc5occc54)c3=O)CC2)c1C (configuration not stated) -3.49%
CCCCCCc1cc2cc(-c3nnc(-c4cccc(Cl)c4)o3)c(=O)oc2cc1O -4.44%
COc1cccc(NC(=O)Cn2c(=O)n(Cc3ccc(C(=O)NCc4ccc5c(c4)OCO5)cc3)c(=O)c3ccccc32)c1 -14%
CN(C)c1ccc(CNC(=O)C2CCN(S(=O)(=O)c3ccc4c(c3)oc(=O)n4C)CC2)cc1 -11.8%
Cc1ccc(S(=O)(=O)N2CCCc3cc(NS(=O)(=O)c4ccc(F)cc4)ccc32)cc1 6.19%
CCN(CC)S(=O)(=O)c1ccc(-c2csc(=Nc3cccc(C(F)(F)F)c3)n2Cc2ccc3c(c2)OCO3)cc1 -15.5%
COc1ccc(C2c3c(n(C)c4ccccc34)C(=O)N2CC(=O)Nc2ccc(C)cc2Cl)cc1 (configuration not stated) -10.4%
CCc1ccc(CNC(=O)Cn2nc(-c3ccc(Cl)cc3)ccc2=O)cc1 -12.8%
CCC(Oc1ccc(F)cc1)C(=O)Nc1nc2c(s1)CCCC2 (configuration not stated) -17%
CCc1ccc(-c2cc(C)no2)cc1S(=O)(=O)NCc1ccco1 2.39%
CC(=O)Nc1cccc(O)c1 -18.5%
O=C(NC1CCCCC1)c1ccc(Cn2c(SCc3ccccc3)nc3cccnc32)cc1 -14%
O=C(Nc1ccc(F)cc1)c1oc2ccccc2c1NC(=O)C1CCCCC1 1.83%
Cc1cccc(C(=O)N2CCCCC2CCN2CCCCC2)c1 (configuration not stated) -3.32%
COc1ccc(C(=O)N2c3nc(-c4ccco4)nn3C3(CCCCC3)[C@@H]3CCCC[C@@H]32)cc1OC -11.9%
Cc1ccc(N2CCN(S(=O)(=O)c3nnc(NC(=O)c4ccccc4)s3)CC2)cc1 -13.2%
Cc1c(C)n(Cc2ccccc2)c2ccc(C(=O)NCC(C)c3ccccc3)cc12 (configuration not stated) -6.85%
COc1ccc(N2CCN(C(=O)c3cc4c(=O)oc5ccc(C)cc5c4s3)CC2)cc1 6.3%
CCCCNc1nc2c(S(=O)(=O)c3ccc(C)cc3)nnn2c2ccsc12 1.76%
CCOc1ccc(N2CC(NC(=O)c3ccc4c(c3)OCO4)CC2=O)cc1 (configuration not stated) -6.54%
Cc1cc(C)n(CCC(=O)Nc2ccc(Cl)cc2)n1 -7.49%
Cc1ccc(C)c(N2CCN(c3nc4ccc(C)cc4nc3-n3nc(C)cc3C)CC2)c1 -6.78%
CCOCCc1nnc(NC(=O)C(=O)c2cc(C)n(-c3ccc(C)c(C)c3)c2C)s1 -10.6%
O=C(Cn1cnc2nc3c(cc2c1=O)CCCC3)Nc1ccc(F)cc1Cl -25.5%
CCOc1ccc(CCNC(=O)c2ccc(-n3c(C)cc4c3CCCC4)cc2)cc1OCC -22.8%
CCOC(=O)CNC(=O)c1cc2c(=O)oc3ccccc3c2s1 -15.3%
COC(=O)c1sccc1S(=O)(=O)N(CC(=O)Nc1cc(C)ccc1C)c1ccc(C)c(C)c1 -6.6%
CCC(C)NC(=O)c1ccc2c(c1)sc1nc(-c3ccc(OC)cc3)cn12 (configuration not stated) -8.03%
Cc1ccc(N2CC(NC(=O)c3ccc(S(=O)(=O)N(C)C)cc3)CC2=O)cc1C (configuration not stated) -12.8%
O=C(NCC(c1cccs1)S(=O)(=O)c1cccs1)c1ccc(F)c(F)c1 (configuration not stated) 3.03%
CCOc1ccc(CCNC(=O)c2ccc3c(c2)N(Cc2ccc(F)cc2)CCS3)cc1 -16.4%
COc1ccccc1CNC(=O)CSc1nc(-c2ccc(OC)c(OC)c2)cc(C(F)(F)F)n1 -8.86%
O=C(Cn1cc(S(=O)(=O)Cc2cccc(Cl)c2)c2ccccc21)Nc1ccccc1C(F)(F)F -20.2%
